Measurements from the supplement of paper PMC11417369.
The other results are listed elsewhere or left out.

Test system: PfAP2-HC AP2 domain (GST-tagged)
Assay: gcPBM binding intensity (ln(normalized median fluorescence intensity)); higher = stronger DNA binding
Outline: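 GST-tagged P. falciparum DNA-binding domains produced in E. coli were incubated for 1 h on an Agilent 4 × 180k array of primer-extended double-stranded 36-bp intergenic genomic probes with negative controls. Binding intensity is the highest Masliner-normalised natural-log median intensity across replicate spots of either probe orientation, with bound protein detected by Alexa488 anti-GST antibody at 488 nm.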

| Sequence | gcPBM binding intensity (ln) |
| --- | --- |
| ATATATTTATATATTACACACAATATTGTAGACATA [CACACA_site4669] | 9.74 |
| TATATGACAAGATAAAGTACAAATTTGTATATATAT [XGTACX_site3027] | 9.88 |
| TTTACACGTACGTGTACACACAAAAATATGTTTTTA [CACACA_site995] | 9.74 |
| AAATTCCACGGACACACACACATATAAATAAATAAA [CACACA_site4811] | 10.4 |
| TGTAGTCTGGAGAAAAGTACATAGTATCTGGTAGCT [XGTACX_site2031] | 9.64 |
| GAAAGAAATAAAGGTGGTACATAAATAAAAACTAAG [XGTACX_site4826] | 9.71 |
| ATTTATATGGTTTGCACACATAACAACTATGGTTAT [CACACA_site3632] | 10.2 |
| AACATAAAAAAAATATGTACATATATAATATATATA [XGTACX_site3764] | 9.78 |
| TAAAATAAAAAGTTTACACACATATATAATTTTAAT [CACACA_site662] | 9.74 |
| AACCATTTTAAATATGCACACAGATGCACTAACACA [CACACA_site8565] | 9.9 |
| GAATTATATAATTAAAGTACATTGTTTATATAATCA [XGTACX_site7246] | 9.55 |
| CATCCATATAAAATATGTACATATATATATATATAT [XGTACX_site5859] | 9.72 |
| TCCTTTCAACCATATATAATGACATGTACTCAAAAA [GTGCAC_negctrl_site417] | 9.39 |
| TATTTTAGTAAAGGTGGTACTTTTAAGTTCATGTAT [XGTACX_site1854] | 9.6 |
| AAAAAAAAAGAAAAATGTACATACATAAATATATAT [XGTACX_site5664] | 9.75 |
| ATTATAAACCATAATTAACACACAAAATAAGTTACA [CACACA_site9057] | 9.9 |
| AAAAAAAAAAAAAAAAGTACACAAATAGATTTATAT [XGTACX_site3727] | 9.53 |
| ATTCTATTTTTTATAAAACCATGTCATCAACATAGG [CACACA_negctrl_site237] | 9.47 |
| TCGTGAGAAAATATTACACACATTTACTATAGTATC [CACACA_site3444] | 10 |
| TTTTTTAAAGATTACTCAAAAAAATAAAAAAATAAA [GTGCAC_negctrl_site222] | 9.23 |
| TGAGTTCAACAAAGACGTACAAAACCAAAAATATAA [XGTACX_site8931] | 9.67 |
| TTTTTTTTTTTTTTTTGATACATTAACCTACAATGG [GTGCAC_negctrl_site625] | 9.06 |

| Sequence | gcPBM binding intensity (ln) |
| --- | --- |
| TATATATCAAGACACACACACATATATTTATTTATA [CACACA_site7733] | 11.2 |
| GATAATTTATTTTTTCGTACACAAAATATAATATAT [XGTACX_site1470] | 9.57 |
| TTATAATATGTATACACACACATATATAAATATATA [CACACA_site2326] | 9.92 |
| TTTTGTTATATACAATAGATCAGAAGAAATGAAGTT [CACACA_negctrl_site1579] | 9.62 |
| CAATGTTAACATATTACACACATATGTATATAGAAT [CACACA_site2732] | 9.9 |
| CTTACGTATTAAGTGTGTCCGTAGTGTTCATAGTTC [XGTACX_site8913] | 9.72 |
| AAAATTTATAAAAGCACACAAAATAAAAAAAAATGA [CACACA_site1491] | 9.88 |
| TGTACGAGTCGTAGAGTGCAGTCTGGAGAAGAGTAC [GTGCAC_site9684] | 9.69 |
| TATATATGTATATATTTTATAAGTATGCAAGAAAAT [TGCATGCA_negctrl_site486] | 9.67 |
| ATATTGGAATAAATTTGTACATATATATATTATTCA [XGTACX_site916] | 9.53 |
| ACATAATGCTAGACACGTACGTACATCCGTGAGGTT [XGTACX_site4156] | 9.79 |
| TTATTATTATATTCTACATGCAGTTTGTGTAGAACA [TGCATGCA_site455] | 9.6 |
| TGAACTCAACAAAGGGTGCATAACAAAAATAGACGT | 9.84 |
| GTAAAAGAACGGCATGCATGAAAAATATTACACATG [TGCATGCA_site143] | 9.93 |
| AATATATGGTTTCATGATATTAAATACAATTTAATG [CACACA_negctrl_site1503] | 9.45 |
| ATATATATATGTATATGTACTTATATTATTGTTTGT [XGTACX_site1466] | 9.78 |
| CTATAATTATGATGAAGTACATATGAGTTCAAAAAA [XGTACX_site3070] | 9.59 |
| AAAGTAAATTTAAGCACACACAACGAATTTTTATAC [CACACA_site1959] | 10.9 |
| TTTCAATAATAAAAAACACACACAAAAAAAAATAAT [CACACA_site8905] | 11 |
| AAAAATATAAACACCAGTACACAAACCTATAATGGA [XGTACX_site3846] | 10.5 |
| GCATATAAAATAAATCGTACATGTAAAACATAATTA [XGTACX_site7077] | 9.72 |
| TTTTTTTTTTTTATATGTACTAATAATCTTTTTTTT [XGTACX_site3552] | 9.5 |
